Reference: patent CN117603358A (INST MICROBIOLOGY CAS; 3SBIO GROUP; SHANXI ADVANCED …, dated 2024)

Assays:
Test in all cases: cell-based or functional assay
S蛋白, SARS-CoV-2 BA.2.75 [1] = target: T1, S蛋白, SARS-CoV-2 BA.2.75 (SARS-CoV-2 BA.2.75)
S蛋白, SARS-CoV-2 XBB.1.5 [2] = target: T2, S蛋白, SARS-CoV-2 XBB.1.5 (SARS-CoV-2 XBB.1.5)
S蛋白, SARS-CoV-2 BQ.1.1 [3] = target: S蛋白, SARS-CoV-2 BQ.1.1 (SARS-CoV-2 BQ.1.1)
S蛋白, SARS-CoV-2 XBB [4] = target: S蛋白, SARS-CoV-2 XBB (SARS-CoV-2 XBB)
S蛋白, SARS-CoV-2 BQ.1 [5] = target: S蛋白, SARS-CoV-2 BQ.1 (SARS-CoV-2 BQ.1)
S蛋白, SARS-CoV-2 BF.7 [6] = target: S蛋白, SARS-CoV-2 BF.7 (SARS-CoV-2 BF.7)
S蛋白, SARS-CoV-2 Delta = S蛋白, SARS-CoV-2 Delta (SARS-CoV-2 Delta)
S蛋白, SARS-CoV-2 BA.4/5 [7] = target: S蛋白, SARS-CoV-2 BA.4/5 (SARS-CoV-2 BA.4/5)
S蛋白, SARS-CoV-2 BA.1 [8] = target: S蛋白, SARS-CoV-2 BA.1 (SARS-CoV-2 BA.1)
S蛋白, SARS-CoV-2 EG.5突变株 = S蛋白, SARS-CoV-2 EG.5突变株 (SARS-CoV-2 EG.5)
S蛋白, SARS-CoV-2 BA.2.75 [9] = target: T1, S蛋白, SARS-CoV-2 BA.2.75; remark: listed apart in the source
S蛋白, SARS-CoV-2 XBB.1.5 [10] = target: T2, S蛋白, SARS-CoV-2 XBB.1.5; remark: listed apart in the source
S蛋白, SARS-CoV-2 BQ.1.1 [11] = target: S蛋白, SARS-CoV-2 BQ.1.1 (SARS-CoV-2 BQ.1.1); remark: listed apart in the source
S蛋白, SARS-CoV-2 BA.2 = S蛋白, SARS-CoV-2 BA.2 (SARS-CoV-2 BA.2)
S蛋白, SARS-CoV-2 XBB [12] = target: S蛋白, SARS-CoV-2 XBB (SARS-CoV-2 XBB); remark: listed apart in the source
S蛋白, SARS-CoV-2 XBB.1.16 = S蛋白, SARS-CoV-2 XBB.1.16 (SARS-CoV-2 XBB.1.16)
S蛋白, SARS-CoV-2 BA.1.1 = S蛋白, SARS-CoV-2 BA.1.1 (SARS-CoV-2 BA.1.1)
S蛋白, SARS-CoV-2 BQ.1 [13] = target: S蛋白, SARS-CoV-2 BQ.1 (SARS-CoV-2 BQ.1); remark: listed apart in the source
S蛋白, SARS-CoV-2 BF.7 [14] = target: S蛋白, SARS-CoV-2 BF.7 (SARS-CoV-2 BF.7); remark: listed apart in the source
S蛋白, SARS-CoV-2 BA.4/5 [15] = target: S蛋白, SARS-CoV-2 BA.4/5 (SARS-CoV-2 BA.4/5); remark: listed apart in the source
S蛋白, SARS-CoV-2 BA.3 = S蛋白, SARS-CoV-2 BA.3 (SARS-CoV-2 BA.3)
S蛋白, SARS-CoV-2 BA.1 [16] = target: S蛋白, SARS-CoV-2 BA.1 (SARS-CoV-2 BA.1); remark: listed apart in the source

B1: 双特异性抗体蛋白DIA-19 (bispecific antibody)
chain: QITLKESGPTLVKPTQTLTLTCTFSGFSLSTSGVGVAWIRQPPGKALEWLALIYWDNDKRSSPSLNNRLTITKDTSKNQVVLTMTNMDPEDTATYYCAHFFSHYDSSNYYYGSWFDPWGQGTLVTVSSGGGGSGGGGS[letters of about 100 residues omitted]FTFGPGTKVDIKGGGGSGGGGSGGGGSGGGGSGGGGSEVQLVESGGGVVQPGGSLRLSCAVSGFTFDDYAMHWVRQAPGKGLDWVSLISGDGSYTYYADSVKGRFTISRDSSKNSLYLQMNSLRTEDTALYYCAKAQTPTLWWLQDAFDIWGQGTMVTVSSGGGGSGGGGSEIVLTQSPGTLSLSPGERATLSCRASQSFDSRYLGWYQQKSGQAPRLLIYGASSRATGIPDRFSGSGSGTDFTLTISRLEPEDFAVYYCQQFGDSPFTFGQGTKLEIKGGGGS[letters of human IgG1 Fc with changes omitted]
- 假病毒中和活性 IC50 (S蛋白, SARS-CoV-2 BA.2.75 [1]): 1.76 ng/mL
- 假病毒中和活性 IC50 (S蛋白, SARS-CoV-2 XBB.1.5 [2]): 1.66 ng/mL
- 假病毒中和活性 IC50 (S蛋白, SARS-CoV-2 BQ.1.1 [3]): 46.6 ng/mL
- 假病毒中和活性 IC50 (S蛋白, SARS-CoV-2 XBB [4]): 1.94 ng/mL
- 假病毒中和活性 IC50 (S蛋白, SARS-CoV-2 BQ.1 [5]): 6.82 ng/mL
- 假病毒中和活性 IC50 (S蛋白, SARS-CoV-2 BF.7 [6]): 1.19 ng/mL
- 假病毒中和活性 IC50 (S蛋白, SARS-CoV-2 Delta): 1.34 ng/mL
- 假病毒中和活性 IC50 (S蛋白, SARS-CoV-2 BA.4/5 [7]): 0.859 ng/mL
- 假病毒中和活性 IC50 (S蛋白, SARS-CoV-2 BA.1 [8]): 0.423 ng/mL
- 假病毒中和效果 IC50 (S蛋白, SARS-CoV-2 EG.5突变株): 1.15 ng/mL
- 假病毒中和效果 IC50 (S蛋白, SARS-CoV-2 BA.2.75 [9]): 1.01 ng/mL
- 假病毒中和效果 IC50 (S蛋白, SARS-CoV-2 XBB.1.5 [10]): 0.899 ng/mL
- 假病毒中和效果 IC50 (S蛋白, SARS-CoV-2 BQ.1.1 [11]): 7.51 ng/mL
- 假病毒中和效果 IC50 (S蛋白, SARS-CoV-2 BA.2): 0.377 ng/mL
- 假病毒中和效果 IC50 (S蛋白, SARS-CoV-2 XBB [12]): 0.652 ng/mL
- 假病毒中和效果 IC50 (S蛋白, SARS-CoV-2 XBB.1.16): 0.72 ng/mL
- 假病毒中和效果 IC50 (S蛋白, SARS-CoV-2 BA.1.1): 0.182 ng/mL
- 假病毒中和效果 IC50 (S蛋白, SARS-CoV-2 BQ.1 [13]): 3.14 ng/mL
- 假病毒中和效果 IC50 (S蛋白, SARS-CoV-2 BF.7 [14]): 0.451 ng/mL
- 假病毒中和效果 IC50 (S蛋白, SARS-CoV-2 BA.4/5 [15]): 0.332 ng/mL
- 假病毒中和效果 IC50 (S蛋白, SARS-CoV-2 BA.3): 0.311 ng/mL
- 假病毒中和效果 IC50 (S蛋白, SARS-CoV-2 BA.1 [16]): 0.272 ng/mL
